In ChEMBL document CHEMBL4888484, “Replenishing the malaria drug discovery pipeline: Screening and hit evaluation of the MMV Hit Generation Library 1 (HGL1) against asexual blood stage Plasmodium falciparum ,using a nano luciferase reporter read-out” (2022):
Among all 150,000 compounds or so, about 540 (0.36%) showed an effect of 50% or more. The list shows a part of the results.

The compounds below were run on Plasmodium falciparum (assay: Primary screen in NF54 nanoGlo assay, in single point, at 2uM, 72h; a lower Z score goes with more inhibition). Conditions: timepoint 72 hour.
Format: functional, Erythrocyte
For `CC[C@H](OC1CCCCC1)C(=O)Nc1cn[nH]c1`, the “% Inhibition” value was -8% and the Z score was 1.12. For `CN1CCCN(S(=O)(=O)NCc2ccccc2)CC1`, the “% Inhibition” value was -3% and the Z score was 0.52. With `Nc1cc(C(=O)N[C@@H]2COCC[C@@H]2OCC2CC2)n[nH]1` the “% Inhibition” value was -5% and the Z score was 0.74. With `CC(=O)N1CCN(C(=O)NC2Cc3ccccc3C2)CCC12CCOCC2` the “% Inhibition” value was -13% and the Z score was 1.47. `Cc1cccc(-n2c(=O)n(C3CC3)c(=O)c3c2ncn3Cc2cccc(C(F)(F)F)c2)c1` was tested, and the “% Inhibition” value was -5% and the Z score was 0.65. `Cc1cc(NC(=O)N2CCO[C@H](C(F)(F)F)[C@@H]2C)cc(C(N)=O)c1` was tested, and the “% Inhibition” value was 10% and the Z score was -1.9. For `C[C@H]1CN(C(=O)Nc2ccc(S(C)(=O)=O)cc2)N=C1c1ccc(S(C)(=O)=O)cc1`, the “% Inhibition” value was -11% and the Z score was 1.34. For `CCn1nc(COc2ccc(OC)cc2)nc1-c1ccc(CN(C)C)o1`, the “% Inhibition” value was 12% and the Z score was -1.82. In the case of `CC(C)n1ncc(C(O)(C(F)(F)F)C(F)(F)F)c1NC(=O)c1ccn(C)n1`, the “% Inhibition” value is reported as -2% and the Z score is reported as 0.29. With `CC[n+]1ccc(-c2ncc(-c3ccc(C(C)(C)C)cc3)o2)cc1` the “% Inhibition” value was 66% and the Z score was -12.84. In the case of `CC1CC(NC(=O)c2csnn2)CCN1Cc1ccccc1` (stereo unspecified), the “% Inhibition” value is reported as -6% and the Z score is reported as 1.13. For `CC1(C)Cc2c(cnn2-c2cccc(F)c2)[C@@H](NS(=O)(=O)N2CCOCC2)C1`, the “% Inhibition” value was 14% and the Z score was -1.95. With `Cc1ccc(C)c(CC(=O)N2CCCO[C@@H](C)C2)c1` the “% Inhibition” value was 6% and the Z score was -1.17. For `CC(=O)N[C@H]1C[C@H](c2nnc(CN3Cc4cnc(C)cc4C3)n2C)C1`, the “% Inhibition” value was -22% and the Z score was 2.18. For `CCCc1cc(C(=O)N2CCC3(CC2)NC(=O)NC3=O)sc1C`, the “% Inhibition” value was -13% and the Z score was 1.95. For `CC#CCN(Cc1ccco1)C(=O)c1cn(CCN2CCCCC2)nn1`, the “% Inhibition” value was 5% and the Z score was -0.93. In the case of `CCn1c(CN2CCC(C)CC2)nc2cc(S(=O)(=O)N3CCCCC3)ccc21`, the “% Inhibition” value is reported as 7% and the Z score is reported as -1.02. In the case of `COC(=O)c1ccc(C2(CN)CC2)cc1`, the “% Inhibition” value is reported as -10% and the Z score is reported as 0.96. In the case of `CN(Cc1ncc[nH]1)C(=O)C1C2C(=O)N(CC(C)(C)C)C[C@@]23C=C[C@@H]1O3` (stereo partly specified), the “% Inhibition” value is reported as -11% and the Z score is reported as 1.23. `O=C(O)[C@H](Cc1ccccc1)NC(=O)C1(N2CCCC2)CCCC1` was tested, and the “% Inhibition” value was -6% and the Z score was 0.64. With `NS(=O)(=O)c1cnc(N2CCC[C@H](c3nccs3)C2)s1` the “% Inhibition” value was -11% and the Z score was 1.79. For `O=C(Nc1ccc2ncnc(N3CCCCC3)c2c1)c1cncc(Br)c1`, the “% Inhibition” value was -6% and the Z score was 1.16. `CC(=O)Nc1onc(C)c1-c1ccc(C)c(S(=O)(=O)Nc2cc(C)ccc2C)c1` was tested, and the “% Inhibition” value was -4% and the Z score was 0.64.
